Reference: EPA's CvTdb concentration-time database
This continues a long series; more values of the same kind are listed elsewhere.

What was measured:
Rat [1] = assay: concentration in brain after dosing; settings: 2 min; dosed: 2-Methyltetrahydrofuran; 10 mg/kg; oral; Male; F344
Rat [2] = assay: concentration in plasma after dosing; settings: 10 min; dosed: 2-Methyltetrahydrofuran; 100 mg/kg; oral; Female; Harlan Sprague Dawley
Rat [3] = assay: concentration in plasma after dosing; settings: 8 min; dosed: 2-Methyltetrahydrofuran; 30 mg/kg; oral; Female; F344
Rat [4] = assay: concentration in plasma after dosing; settings: 4 h; dosed: 2-Methyltetrahydrofuran; 100 mg/kg; oral; Male; Harlan Sprague Dawley
Rat [5] = assay: concentration in brain after dosing; settings: 1 h; dosed: 2-Methyltetrahydrofuran; 30 mg/kg; oral; Female; F344
Rat [6] = assay: concentration in brain after dosing; settings: 10 min; dosed: 2-Methyltetrahydrofuran; 30 mg/kg; oral; Female; F344
Rat [7] = assay: concentration in brain after dosing; settings: 2 min; dosed: 2-Methyltetrahydrofuran; 10 mg/kg; oral; Male; F344; remark: listed apart in the source
Rat [8] = assay: concentration in plasma after dosing; settings: 5 min; dosed: 2-Methyltetrahydrofuran; 10 mg/kg; iv; Male; F344
Rat [9] = assay: concentration in plasma after dosing; settings: 0.75 h; dosed: 2-Methyltetrahydrofuran; 30 mg/kg; oral; Female; F344
Rat [10] = assay: concentration in brain after dosing; settings: 4 h; dosed: 2-Methyltetrahydrofuran; 100 mg/kg; oral; Female; Harlan Sprague Dawley
Rat [11] = assay: concentration in brain after dosing; settings: 12 h; dosed: 2-Methyltetrahydrofuran; 400 mg/kg; oral; Male; F344
Rat [12] = assay: concentration in brain after dosing; settings: 8 min; dosed: 2-Methyltetrahydrofuran; 10 mg/kg; oral; Male; F344
Rat [13] = assay: concentration in brain after dosing; settings: 1 h; dosed: 2-Methyltetrahydrofuran; 10 mg/kg; oral; Male; F344
Rat [14] = assay: concentration in brain after dosing; settings: 4 min; dosed: 2-Methyltetrahydrofuran; 30 mg/kg; oral; Male; F344
Rat [15] = assay: concentration in brain after dosing; settings: 4 h; dosed: 2-Methyltetrahydrofuran; 400 mg/kg; oral; Female; Harlan Sprague Dawley
Rat [16] = assay: concentration in plasma after dosing; settings: 4 h; dosed: 2-Methyltetrahydrofuran; 400 mg/kg; oral; Female; Harlan Sprague Dawley
Rat [17] = assay: concentration in plasma after dosing; settings: 20 min; dosed: 2-Methyltetrahydrofuran; 10 mg/kg; oral; Male; F344
Rat [18] = assay: concentration in plasma after dosing; settings: dosed: Bromochloroacetic acid, 100 mg/kg, oral, Female, F344
Rat [19] = assay: concentration in plasma after dosing; settings: dosed: Bromochloroacetic acid, 100 mg/kg, oral, Male, F344
Rat [20] = assay: concentration in plasma after dosing; settings: 40 min; dosed: Bromochloroacetic acid; 10 mg/kg; iv; Male; F344
Rat [21] = assay: concentration in plasma after dosing; settings: dosed: Fluorotelomer alcohol 8+2, 48 mg/kg, oral, Male, Harlan Sprague Dawley
Rat [22] = assay: concentration in plasma after dosing; settings: dosed: Fluorotelomer alcohol 8+2, 48 mg/kg, oral, Male, Harlan Sprague Dawley; remark: listed apart in the source
Rat [23] = assay: concentration in plasma after dosing; settings: 0.5 h; dosed: Fluorotelomer alcohol 8+2; 80 mg/kg; oral; Female; Harlan Sprague Dawley
Rat [24] = assay: concentration in plasma after dosing; settings: dosed: Fluorotelomer alcohol 8+2, 160 mg/kg, oral, Female, Harlan Sprague Dawley
Rat [25] = assay: concentration in plasma after dosing; settings: dosed: Formamide, 300 mg/kg, oral, Male, F344
Rat [26] = assay: concentration in plasma after dosing; settings: dosed: Formamide, 300 mg/kg, oral, Female, Harlan Sprague Dawley
Rat [27] = assay: concentration in plasma after dosing; settings: dosed: Formamide, 600 mg/kg, oral, Male, Harlan Sprague Dawley
Rat [28] = assay: concentration in plasma after dosing; settings: dosed: Formamide, 36 mg/kg, oral, Female, Harlan Sprague Dawley
Rat [29] = assay: concentration in plasma after dosing; settings: dosed: Formamide, 90 mg/kg, iv, Male, Harlan Sprague Dawley
Rat [30] = assay: concentration in plasma after dosing; settings: 20 min; dosed: Pyridine; 200 mg/kg; oral; Female; F344
Rat [31] = assay: concentration in plasma after dosing; settings: 40 min; dosed: Pyridine; 10 mg/kg; oral; Male; Harlan Sprague Dawley
Rat [32] = assay: concentration in plasma after dosing; settings: 9 h; dosed: Pyridine; 200 mg/kg; oral; Female; F344
Rat [33] = assay: concentration in plasma after dosing; settings: 2 h; dosed: Pyridine; 10 mg/kg; oral; Male; F344
Rat [34] = assay: concentration in plasma after dosing; settings: 20 min; dosed: Pyridine; 50 mg/kg; oral; Female; F344
Rat [35] = assay: concentration in plasma after dosing; settings: dosed: Pyridine, 100 mg/kg, oral, Male, F344
Rat [36] = assay: concentration in plasma after dosing; settings: 2 min; dosed: Pyridine; 200 mg/kg; oral; Female; Harlan Sprague Dawley
Rat [37] = assay: concentration in plasma after dosing; settings: 1 h; dosed: Pyridine; 10 mg/kg; oral; Male; Harlan Sprague Dawley
Rat [38] = assay: concentration in plasma after dosing; settings: 2 min; dosed: Pyridine; 10 mg/kg; oral; Male; Harlan Sprague Dawley

CC1CCCO1 (centres undefined) [2-Methyltetrahydrofuran]
Settings	concentration in brain [µg/g]	concentration in plasma [ng/mL]
Rat [1]	0.529	–
Rat [2]	–	45200
Rat [3]	–	17600
Rat [4]	–	12700
Rat [5]	7.54	–
Rat [6]	11.9	–
Rat [7]	1.31	–
Rat [8]	–	9960
Rat [9]	–	15300
Rat [10]	16.9	–
Rat [11]	0.334	–
Rat [12]	2.22	–
Rat [13]	1.17	–
Rat [14]	9.6	–
Rat [15]	64.9	–
Rat [16]	–	155000
Rat [17]	–	3840

O=C(O)C(Cl)Br (centres undefined) [Bromochloroacetic acid]
concentration in plasma [ng/mL]
Settings	1.5 h	2 min	7 h	20 min
Rat [18]	32500	2710	–	–
Rat [19]	–	–	98.9	11000

Settings	concentration in plasma [ng/mL]
Rat [20]	188

OCCC(F)(F)C(F)(F)C(F)(F)C(F)(F)C(F)(F)C(F)(F)C(F)(F)C(F)(F)F [Fluorotelomer alcohol 8+2]
Settings	concentration in plasma [ng/mL]
Rat [21], 0.25 h	128
Rat [21], 6 h	150
Rat [22], 0.75 h	1040
Rat [22], 12 h	85.3
Rat [24], 0.5 h	726
Rat [24], 9 h	829

Settings	concentration in plasma [ng/mL]
Rat [23]	682

NC=O [Formamide]
Settings	concentration in plasma [ng/mL]
Rat [25], 0.25 h	194000
Rat [25], 5 h	254000
Rat [26], 1 h	210000
Rat [26], 72 h	19700
Rat [27], 0.25 h	454000
Rat [27], 5 h	816000
Rat [28], 8 h	33900
Rat [28], 12 h	25400
Rat [29], 5 min	25800
Rat [29], 36 h	22100

c1ccncc1 [Pyridine]
Settings	concentration in plasma [ng/mL]
Rat [30]	57100
Rat [31]	4300
Rat [32]	46500
Rat [33]	646
Rat [34]	40900
Rat [36]	71600
Rat [37]	2910
Rat [38]	5130

Rat [35]
Settings	concentration in plasma [ng/mL]
0.5 h	47700
6 h	67000
